Laboratory results from PMC4336329 (PLoS ONE, 2015).
The whole screen tested about 310,000 compounds, of which about 2,200 (0.71%) showed an effect of 50% or more. Effects have a minus sign here. The list shows a part of the results.

Target: human ether-à-go-go-related gene (hERG) potassium channel (human, UniProt Q12809)
Assay: primary screen, population patch clamp on CHO cells stably expressing hERG

Chain of human ether-à-go-go-related gene (hERG) potassium channel (Q12809 whole entry, looked up): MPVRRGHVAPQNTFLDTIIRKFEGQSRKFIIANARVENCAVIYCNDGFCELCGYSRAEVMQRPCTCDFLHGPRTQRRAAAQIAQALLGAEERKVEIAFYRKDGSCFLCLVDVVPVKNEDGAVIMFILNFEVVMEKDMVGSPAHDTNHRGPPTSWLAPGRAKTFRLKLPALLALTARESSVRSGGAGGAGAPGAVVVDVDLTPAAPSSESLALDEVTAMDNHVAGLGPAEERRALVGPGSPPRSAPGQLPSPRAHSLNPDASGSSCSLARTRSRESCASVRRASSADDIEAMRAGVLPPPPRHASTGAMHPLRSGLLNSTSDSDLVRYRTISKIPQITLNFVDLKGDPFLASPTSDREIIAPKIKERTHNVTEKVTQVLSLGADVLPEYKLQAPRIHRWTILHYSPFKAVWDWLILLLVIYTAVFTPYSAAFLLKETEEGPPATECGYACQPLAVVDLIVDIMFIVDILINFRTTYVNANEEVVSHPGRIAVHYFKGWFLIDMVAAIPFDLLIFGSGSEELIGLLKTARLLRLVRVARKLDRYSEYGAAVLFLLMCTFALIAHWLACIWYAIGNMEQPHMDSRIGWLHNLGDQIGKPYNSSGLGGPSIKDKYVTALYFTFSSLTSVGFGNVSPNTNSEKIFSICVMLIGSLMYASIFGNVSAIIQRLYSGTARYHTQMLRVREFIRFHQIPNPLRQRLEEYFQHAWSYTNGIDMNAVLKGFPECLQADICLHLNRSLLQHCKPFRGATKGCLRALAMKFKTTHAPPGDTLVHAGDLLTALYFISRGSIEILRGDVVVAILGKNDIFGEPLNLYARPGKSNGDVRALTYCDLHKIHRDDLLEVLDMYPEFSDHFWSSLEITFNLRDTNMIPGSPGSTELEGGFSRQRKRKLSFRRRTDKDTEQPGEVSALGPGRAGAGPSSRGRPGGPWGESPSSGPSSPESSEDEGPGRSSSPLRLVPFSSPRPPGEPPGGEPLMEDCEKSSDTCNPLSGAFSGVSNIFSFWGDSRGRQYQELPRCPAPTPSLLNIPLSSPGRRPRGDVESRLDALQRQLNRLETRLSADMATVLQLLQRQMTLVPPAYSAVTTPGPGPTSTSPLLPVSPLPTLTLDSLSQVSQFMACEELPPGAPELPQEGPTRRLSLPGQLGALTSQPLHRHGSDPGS

Compound	hERG current change (%, negative = inhibition) at 1uM [%]
COc1ccc(OC(C)C(=O)NCC2CCCO2)cc1 (stereo not shown)	14.4
CCCCc1ccc(NC(=S)Nc2ccc(Cl)c(S(=O)(=O)N(C)C)c2)cc1	18.2
C=CCNC(=S)N1CCN(CCN=CC2=C(O)CC(c3ccc(Cl)cc3)CC2=O)CC1 (stereo not shown)	-15.7
O=C1OCc2ccc(NS(=O)(=O)c3ccc(C(F)(F)F)cc3)cc21	12.4
C=C(C)Cn1c(C2CC(=O)N(c3ccccc3F)C2)nc2ccccc21 (stereo not shown)	3.1
O=S(=O)(/N=C(/Nc1ccc(F)c(F)c1F)c1ccccc1)c1ccccc1	7.72
CC(C)CNC(=O)COC(=O)c1cccc(S(=O)(=O)NCC(F)(F)F)c1	13
CCOc1ccc(S(=O)(=O)Nc2cccc(C(=O)N(C)CC(=O)Nc3cccc(OC)c3)c2)cc1	-0.936
Cn1c(C(O)c2ccc(Cl)cc2)nc(Cl)c1Cl (stereo not shown)	13.6
OC(CNCC1CCCO1)Cn1c2ccc(Br)cc2c2cc(Br)ccc21 (stereo not shown)	10.6
CCOC(=O)N1CCC(NCCNC(=O)c2ccc(F)c(F)c2)CC1.Cl	2.78
CC(=O)c1c(OC(=O)c2ccccc2)ccnc1C(F)(F)F	-4.82
CN(C(=O)CSc1nc2ccccc2n1C)C1CCS(=O)(=O)C1 (stereo not shown)	6.95
Cc1cccc(N2C(=O)NC(=O)/C(=C/c3ccc([N+](=O)[O-])o3)C2=O)c1	8.27
Cc1c(NC(=O)C(C)Sc2ncnc3ccccc23)c(=O)n(-c2ccccc2)n1C (stereo not shown)	6
O=[N+]([O-])c1ccccc1OCc1nc(-c2cccs2)no1	26.5
Cc1ccc(NC(=O)c2ccncc2)cc1[N+](=O)[O-]	11.2
CCc1ccc(NC(=O)c2ccc(NC(=O)C3CCCO3)cc2)cc1 (stereo not shown)	15
CCOc1ccccc1NC(=O)[C@@H](NC(=O)c1ccccc1F)C(C)C	5.49
Cc1sc(NC(=O)CN2CCOCC2)c(C(=O)c2ccccc2)c1C	2.49
O=C(O)C1CC(=O)N(c2ccc(F)c(F)c2)C1 (stereo not shown)	13.9
CSC(C(=O)c1cc2ccccc2o1)c1ccccc1 (stereo not shown)	9.71

Compound	hERG current change (%, negative = inhibition) at 1uM [%]
COc1cccc(CNC(=O)c2ccc(C)c(S(=O)(=O)N3CCCCC3)c2)c1	5.48
Cc1oc2c(CN3CCC(C)CC3)c(O)ccc2c(=O)c1-c1ccccc1	-0.462
Cc1ccc(CN2CCN(/N=C/c3ccc(Cl)c([N+](=O)[O-])c3)CC2)cc1	6.85
COc1ccccc1Oc1ccc(S(=O)(=O)N2CCCC2)cc1	-0.125
COc1cc(/C=N/NC(=O)COc2ccccc2[N+](=O)[O-])ccc1OC(=O)c1ccco1	5.43
Cc1ccc(N(CC(=O)NC(C)(C)C)C(=O)CS(=O)CC(=O)Nc2ccc3c(c2)OCO3)cc1 (stereo not shown)	10.2
COc1ccc(C(C)=O)cc1COc1cccc2cccnc12	9.4
Cc1cc(=O)oc2c3c(cc(OCC(=O)NCc4cccnc4)c12)OC(C)(C)CC3	3.62
S=C(Nc1ccc(Cl)c(Cl)c1)N1CCCC1	8.19
Cl.Oc1ccc(Nc2ncnc3ccccc23)cc1	13.9
CN(C)CCNC(NC(=O)c1cccs1)C(Cl)(Cl)Cl (stereo not shown)	7.35
CCc1noc(C)c1C(=O)NCCc1ccc(OC)c(OC)c1	0.92
CCCCn1c(N)c(C(=O)NCCN2CCOCC2)c2nc3ccccc3nc21	-21
O=C(CSc1nnc(-c2ccncc2)n1Cc1ccco1)Nc1nc(-c2ccccc2)cs1	5.46
Cc1ccc2[nH]c(=O)c(CN(Cc3cccnc3)C(=S)NCCCN(C)C)cc2c1	7.19
Cc1[nH]c2ccccc2c1/C=N/NC(=O)c1ccccc1	13.7
CCn1c(N2CCC(C)CC2)nc2c1c(=O)n(C)c(=O)n2C	12.7
O=C(CC1CCCCC1)NCc1ccco1	7.39
COc1ccccc1/C=C1\C(=O)Nc2ccccc21	9.18
COc1ccc(OC(C)C(=O)Nc2ccc([N+](=O)[O-])cc2)cc1 (stereo not shown)	17.5
O=C(Nc1cccc(S(=O)(=O)N2CCCCC2)c1)c1c2c(nc3ccccc13)CCN(Cc1ccccc1)C2	23.6
Cc1cc(S(=O)(=O)Nc2ccc(C(=O)N3CC(C)OC(C)C3)cc2)ccc1F (stereo not shown)	1.62

Compound	hERG current change (%, negative = inhibition) at 1uM [%]
COc1cc(/C=N/NC(=O)Nc2ccccc2)ccc1OC(C)=O	10.8
O=C(Cn1cc2c(n1)CCCCC2)N1CCCCC1	9.12
CCCc1nc(NCc2ccco2)c(C#N)c2c1COC(C)(C)C2	7.18
c1ccc(CNC2=NCCS2)cc1	17.9
C/C(=N\NC(=O)c1ccc(NS(=O)(=O)c2cccs2)cc1)c1ccc2ccccc2c1	9.89
C/C(=N\NC(=O)C(N)=O)c1ccc(Br)cc1	7.04
O=S(=O)(c1cc(C(F)(F)F)ccc1Cl)N1CCCCCC1	6.28
O=C1CC(c2ccc(F)cc2)CC(O)=C1C=NCCN1CCNCC1 (stereo not shown)	7.81
CCC(C)Nc1nc2ccccc2n2c(C)nnc12 (stereo not shown)	0.413
COc1cccc(C(=O)CC(=O)C(=O)Nc2cc(OC)c(OC)c(OC)c2)c1	5.64
Cc1ccccc1N(C(=O)c1csnn1)C(C(=O)NC1CCCCC1)c1ccncc1 (stereo not shown)	16
CCOC(=O)Cn1cc(C=C2C(=O)N(C)C(=O)N(C)C2=O)c2ccccc21	7.84
O=C(COC(=O)CNC(=O)c1cccs1)Nc1ccccc1C(F)(F)F	18.1
Cc1cccc(NC(=O)C2CCCN(S(=O)(=O)c3cccc4nsnc34)C2)n1 (stereo not shown)	-2.04
CCOC(=O)c1[nH]c(C)c(/C(O)=C2\C(=O)C(=O)N(CCN3CCOCC3)C2c2ccco2)c1C (stereo not shown)	8.62
CNC(=S)NC1CC2CCCC(C1)N2CC(C)C (stereo not shown)	8.21
CCCn1c(C(C)Nc2nc(-c3ccc(C)cc3)cs2)nc2cc(Cl)c(Cl)cc21 (stereo not shown)	1.41
CN(C)C(CNC(=O)CN1C(=O)NC2(CCc3ccccc32)C1=O)c1ccco1 (stereo not shown)	19
N#Cc1ccccc1S(=O)(=O)N1CCN(CC(O)COc2ccccc2F)CC1.O=C(O)C(=O)O (stereo not shown)	11.2
COc1ccc(OC)c(NC(=O)CN(C)CC(=O)Nc2ccccc2Br)c1	2.84
CC(CCOC1=NS(=O)(=O)c2ccccc21)NC(=O)C(=O)Nc1ccccc1 (stereo not shown)	11.9
O=C(COC(=O)C1COc2ccccc2O1)Nc1cccc(S(=O)(=O)N2CCCCC2)c1 (stereo not shown)	0.759

Compound	hERG current change (%, negative = inhibition) at 1uM [%]
O=S(=O)(Nc1ncccn1)c1cc(Cl)ccc1Cl	10.5
COc1ccccc1N1CCN(C(=O)c2ccc3c(=O)n(Cc4ccco4)c(=S)[nH]c3c2)CC1	-12.2
CC1CCCCC1NC(=O)Cn1c(CN2CCCCC2)nc2ccccc2c1=O (stereo not shown)	5
O=S(=O)(NCCN1CCOCC1)c1ccc(-c2ccc(S(=O)(=O)NCCN3CCOCC3)cc2)cc1	20.9
COCc1cc(=O)[nH]c(Nc2nc3ccc(C)cc3o2)n1	9.6
O=C(CN1C(=O)C2C3C=CC(C4CC34)C2C1=O)NCc1ccco1 (stereo not shown)	8.58
Clc1ccccc1SCc1nc2ccccc2[nH]1	6.88
O=C(c1ccccc1-c1nc2ccccc2[nH]1)N1CCOCC1	4.53
C/C(=N\Nc1ccc(S(=O)(=O)Nc2ccccc2)cc1[N+](=O)[O-])c1ccc(N2CCOCC2)cc1	-0.924
CCOc1ncccc1C(=O)OCC(=O)Nc1ncc(C(F)(F)F)cc1Cl	10.8
CCc1cccc(NC(=O)CN(C)S(=O)(=O)c2cccc3cccnc23)c1	1.12
O=C(NC1CC1)c1cccc(S(=O)(=O)N2CCOCC2)c1	11.9
CCN(CC(=O)Nc1ccccc1C(F)(F)F)CC(=O)NC1CC1	15
C=CCN(CC=C)C(=O)c1cccc(OC2CCN(S(=O)(=O)N(C)C)CC2)c1	12.5
CC(=O)Nc1nonc1NC(=O)c1ccc(C(C)(C)C)cc1	-3.61
CCCNC(=O)CN1C(=O)NC(CC)(c2ccc(F)cc2)C1=O (stereo not shown)	13.8
CN(C)/C=C(\C=[N+](C)C)c1[nH]ncc1[N+](=O)[O-].[O-][Cl+3]([O-])([O-])[O-]	8.38
C=CCn1c(-c2cnn(-c3ccccc3)c2N)n[nH]c1=S	18
C/C(=N\OC(=O)NC(C)C)c1sc(-c2ccc(Cl)cc2)nc1C	-5.86
COc1cc2c(C#N)c(N3CCN(c4ccccc4OC)CC3)nc(N)c2c(N)n1	9.28
CN(C)S(=O)(=O)N1CCC(Cc2ccccc2)CC1	-0.452
CN1CCN(C(=O)c2ccc(CN3CCOCC3)cc2)CC1	12
